Measurements reported in publication PMC12040169 (PLOS Biology, 2025).
This is one part of the list.

test system: T1, C. trachomatis L2/434/Bu expressing GFP (CTL2-GFP); set-up: species or system HeLa; C. trachomatis total inclusion area by high-content imaging, normalised to DMSO; conditions: total inclusion area; 28.5 h, 10 µM; inhibitor
T1 construct: L2/434/Bu GFP intracellular growth in HeLa cells
Summary of the method: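 Following bulk GFP and resorufin fluorescence reads, infected cells were fixed, Hoechst-stained and imaged on a high-content platform. Inclusion total area and number per well served as growth proxies; nuclei counts indicated host viability. MICs were derived as for the fluorescence assay.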

SMILES | % of control remaining
CN(C)c1ccc(CN2CC[C@H](c3nc4cccc(C(N)=O)c4[nH]3)C2)cc1 [CBK289414] | 80.4345
O=c1c(N2CCC(Sc3ccccc3)CC2)nccn1Cc1ccc(-n2cncn2)cc1 [CBK153655] | 74.4375
FC(F)(F)c1cccnc1OCc1cccnc1 [CBK115780] | 71.7518
CC1CCc2c(C(=O)N3CCC4(CC3)NC(=O)NC4=O)csc2C1 (stereo not shown) [CBK305741] | 24.3617
Cc1ccc(NC(=O)N2CCc3ccccc3C2)cc1 [CBK155309] | 69.497
CCOc1ncccc1NC(=O)c1cnc2c(cnn2CC(C)C)c1 [CBK304288] | 98.0175
CC(C)n1cc(C(=O)NCc2cccnc2N(C)C2CCCCC2)cn1 [CBK307593] | 99.2158
c1ccc2c3c([nH]c2c1)C12CCN(CC1)C(c1ccncc1)N2CC3 (stereo not shown) [CBK284434] | 74.6137
COCCn1ccnc1C1CCCN(C(=O)COc2ccccc2Cl)C1 (stereo not shown) [CBK307211] | 75.7277
COC(=O)c1scc(NS(=O)(=O)c2ccc(Cl)cc2Cl)c1C(=O)OC [CBK026681] | 82.774
CCC(=O)Nc1ccc(-n2cnc(C(=O)NCc3cccnc3)c2)nc1 [CBK288603] | 115.668
O=C(CSc1nnc(Cc2cccc3ccccc23)n1-c1ccccc1)NC1CCCCC1 [CBK266052] | 119.133
Nc1nc(OCc2ccncc2)cnc1-c1cnn(Cc2ccccc2)c1 [CBK145194] | 96.2227
CCOC(=O)c1c(NC(=O)NCc2ccncc2)sc2c1CCC2 [CBK307591] | 72.6238
O=C(Nc1ccc(Cl)c(Cl)c1)c1cnc2sccn2c1=O [CBK287449] | 92.1769
COc1cc([N+](=O)[O-])ccc1NC(=S)Nc1cccc(S(=O)(=O)N2CCOCC2)c1 [CBK267042] | 129.99
Cc1ccsc1CN(Cc1cncn1C)CC(C)O (stereo not shown) [CBK283033] | 96.2021
Cc1ccc(C)c(OCC(=O)N(Cc2nc(-c3ccccc3)no2)C2CCCCC2)c1 [CBK269067] | 100.331
O=C(O)CCc1nnc(S)n1Cc1ccccc1 [CBK286926] | 113.119
COc1cccc(CC(=O)Nc2ncccc2C)c1 [CBK304982] | 135.682
c1cnn(CC2CCCCN2c2ncnc3ccsc23)c1 (stereo not shown) [CBK304843] | 84.0316
CC(C)N1CNc2c(c(=O)nc(O)n2Cc2ccccc2)C1 [CBK291139] | 102.899
CCOC1C(OCC)N(S(=O)(=O)c2ccc(C)cc2)CCN1S(=O)(=O)c1ccc(C)cc1 (stereo not shown) [CBK261832] | 88.0497
CNS(=O)(=O)N1CCN(S(=O)(=O)NC)CC1 [CBK007064] | 24.0354
CS(=O)(=O)CCNC(=O)c1cnc(-c2cccc(C(F)(F)F)c2)c(-c2ccncc2)c1 [CBK036661] | 86.1283
Cc1ccccc1OCCSc1nc2ccccc2n1CCO [CBK262523] | 99.7682

SMILES | % of control remaining
COc1cccc(NC(=S)NCCc2ccccn2)c1 [CBK265245] | 89.6522
CC(=O)Nc1cnn(-c2ccc(C(=O)N3CCCCC3c3nc4ccccc4[nH]3)cc2)c1 (stereo not shown) [CBK291109] | 102.931
COc1ccc(-c2cc(C3CCN(C(=O)C4CC4)C3)[nH]n2)cc1 (stereo not shown) [CBK285263] | 98.3507
Cc1ccccc1-c1cnc(N)c(-c2ccc(O)cc2)n1 [CBK115544] | 87.9026
CC(C)c1cccc(N2CC(C(=O)Nc3cc(S(C)(=O)=O)ccc3F)CC2=O)c1 (stereo not shown) [CBK296751] | 111.508
Cc1noc(C)c1S(=O)(=O)Nc1cccc(-c2cnco2)c1 [CBK067108] | 95.4256
Cc1ccc(C)c(OCCNCCN(C)C)c1Cl [CBK267816C] | 92.4412
S=c1nc(-c2ccco2)n(Cc2ccccc2)c(=S)n1/C(=N/Cc1ccccc1)c1ccco1 [CBK223550] | 107.002
NCCNC(=O)c1cc(-c2ccc(Cl)cc2)[nH]n1 [CBK160975] | 104.522
Cc1cccnc1C(Cc1ccsc1)NS(=O)(=O)c1ccc2[nH]c(=O)[nH]c(=O)c2c1 (stereo not shown) [CBK286356] | 76.065
CCOC(=O)C(C)n1nc(C)n2c(cc3ccsc32)c1=O (stereo not shown) [CBK284079] | 52.8905
O=C(c1cccnc1)N1CCC(c2cccc(Cc3ccc(C(F)(F)F)cc3)n2)CC1 [CBK286222] | 64.8025
Cc1nc2c(c(=O)[nH]1)CN(C(=O)c1cc(C3CC3)oc1C)CC2 [CBK283650] | 96.3504
CCOC(=O)c1c(NC(=O)Cn2cnc3ccccc32)sc2c1CCCC2 [CBK260917] | 73.229
CC(C)CC(=O)N1C[C@H]2CCCN(Cc3ccsc3)[C@H]2C1 [CBK285290] | 91.3422
COc1cccc(CNC(=O)NC(=O)C2CCN(C)CC2)c1 [CBK034828] | 88.1494
CCOC(=O)C1CCCN(Cc2c(C)nn(C)c2Cl)C1 (stereo not shown) [CBK304838] | 97.753
O=[N+]([O-])c1ccc(F)cc1NS(=O)(=O)c1ccccc1 [CBK000674] | 103.446
CCCCC(c1cccnc1)N(C)C(=O)c1cnc(C)c(C)c1 (stereo not shown) [CBK307121] | 105.544
CC(C)Nc1nc2ccccc2nc1Sc1cccc(C(=O)O)c1 [CBK115955T] | 90.827
COc1ccc2cc(CNc3ccc(F)c(F)c3)c(=O)[nH]c2c1 [CBK281934] | 104.722
O=C(O)C1CC=CCC1C(=O)Nc1ccc(S(=O)(=O)N2CCc3ccccc32)cc1 (stereo not shown) [CBK268122] | 99.4098
CC(=O)c1ccc(-c2cnc3[nH]c(=O)n([C@H](C)c4ccccc4)c3n2)s1 [CBK064375] | 129.933
CC(C)n1nnnc1SCCC(=O)N1CCN(c2ccc(F)cc2)CC1 [CBK304602] | 56.7004
OCCN1CCN(c2nc(NCC3CCCO3)c3ccccc3n2)CC1 (stereo not shown) [CBK266659C] | 124.238
Cc1ccc(Nc2nccc(C3CCCN(Cc4ccc5[nH]ccc5c4)C3)n2)nc1 (stereo not shown) [CBK286122] | 74.0881
